Experimental data from PubChem BioAssay AID1347165 (National Center for Advancing Translational Sciences (NCATS), 2019).
Several values for one entry are separate records, joined by “and”; a condition that tells them apart may be missing. Identical values can stand only once. The whole screen tested about 220,000 compounds, of which about 5,700 (2.6%) were called active. The shares of active, inactive and inconclusive entries below differ from those in the screen. The call rests on the fitted dose curve; in most records, active means well fitted inhibition curve with a large enough effect; inconclusive means small, poorly fitted or top-dose-only effect; inactive means no such curve, though single readings can be large or run the other way. A potency beside an inconclusive call is a rough fit, not a confirmed value.

What follows are compounds tested against Lysine-specific demethylase 5B (Homo sapiens) (UniProt Q9UGL1) (assay: Primary screen for KDM5B Histone Demethylases FDH-coupled qHTS). Conditions: FDH-coupled NADH fluorescence (FDH is formaldehyde dehydrogenase); activity change, negative = inhibition: at 57.7 µM (top of the series) unless noted.
Summary of the method: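 qHTS format, multiple compound concentrations. Buffer 50 mM HEPES pH 7.5/0.01% Tween-20; 200 nM KDM5BΔAP final; 10 min compound preincubation; substrate-mix levels 12.5 µM peptide, 25 µM α-KG, 0.25 mM NAD⁺; 30 min RT; ΔRFU.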
Further: nearly all actives have a fitted effect of over 70% in size.
Potency means the concentration at half of the fitted maximal effect; tags describe the fitted curve by direction and shape.
Wherever activity change, negative = inhibition is given: 0% is about no effect.

Sequence of UniProt Q9UGL1 (Q9UGL1 whole entry, looked up): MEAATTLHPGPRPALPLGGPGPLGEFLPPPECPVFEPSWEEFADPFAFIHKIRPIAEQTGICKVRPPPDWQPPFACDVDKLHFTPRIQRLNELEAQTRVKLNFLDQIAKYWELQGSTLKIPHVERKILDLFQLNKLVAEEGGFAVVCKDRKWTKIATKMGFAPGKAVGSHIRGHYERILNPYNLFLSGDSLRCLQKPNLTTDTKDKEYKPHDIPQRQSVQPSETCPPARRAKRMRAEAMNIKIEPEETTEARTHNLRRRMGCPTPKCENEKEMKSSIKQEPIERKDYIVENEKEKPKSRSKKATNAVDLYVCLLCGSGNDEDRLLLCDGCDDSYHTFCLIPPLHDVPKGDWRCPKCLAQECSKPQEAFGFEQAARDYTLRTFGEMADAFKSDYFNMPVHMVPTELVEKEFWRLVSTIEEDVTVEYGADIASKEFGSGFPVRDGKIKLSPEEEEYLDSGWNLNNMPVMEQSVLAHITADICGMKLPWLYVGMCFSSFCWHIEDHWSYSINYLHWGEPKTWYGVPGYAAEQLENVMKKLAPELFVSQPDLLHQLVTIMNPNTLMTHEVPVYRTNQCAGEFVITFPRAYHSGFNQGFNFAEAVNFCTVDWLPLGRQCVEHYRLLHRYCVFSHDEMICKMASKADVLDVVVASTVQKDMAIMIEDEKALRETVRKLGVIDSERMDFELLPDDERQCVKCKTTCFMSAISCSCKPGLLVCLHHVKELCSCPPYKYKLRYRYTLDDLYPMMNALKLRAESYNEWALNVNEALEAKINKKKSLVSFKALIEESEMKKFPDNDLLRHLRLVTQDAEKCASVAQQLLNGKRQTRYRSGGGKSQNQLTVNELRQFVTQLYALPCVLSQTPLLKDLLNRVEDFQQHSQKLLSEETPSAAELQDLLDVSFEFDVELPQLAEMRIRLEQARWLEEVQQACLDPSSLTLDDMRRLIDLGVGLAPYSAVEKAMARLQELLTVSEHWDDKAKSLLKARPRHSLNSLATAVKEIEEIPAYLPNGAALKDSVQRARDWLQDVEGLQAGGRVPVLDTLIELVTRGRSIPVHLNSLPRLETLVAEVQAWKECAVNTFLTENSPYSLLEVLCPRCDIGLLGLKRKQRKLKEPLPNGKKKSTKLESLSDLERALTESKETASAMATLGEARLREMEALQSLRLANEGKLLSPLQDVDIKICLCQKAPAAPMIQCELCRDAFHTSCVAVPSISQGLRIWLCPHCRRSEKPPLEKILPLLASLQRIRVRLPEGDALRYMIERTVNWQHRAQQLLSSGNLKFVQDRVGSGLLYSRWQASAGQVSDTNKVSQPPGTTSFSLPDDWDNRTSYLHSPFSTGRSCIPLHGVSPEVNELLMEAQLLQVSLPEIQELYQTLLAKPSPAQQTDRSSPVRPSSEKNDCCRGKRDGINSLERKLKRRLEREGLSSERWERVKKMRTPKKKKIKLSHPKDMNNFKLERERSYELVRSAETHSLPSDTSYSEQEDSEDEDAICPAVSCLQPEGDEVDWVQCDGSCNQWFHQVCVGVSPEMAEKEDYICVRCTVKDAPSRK

**Q.** For `O=C(Cn1ccn2nc(-c3ccccc3)c(CO)c2c1=O)NCCC1=CCCCC1`, which Potency is on record?
**A.** The Potency was inconclusive: 28.2 µM [inhibitor, single point].

**Q.** With `COc1ccc(C(=O)N2CCC3(CC2)N=C(c2ccccc2)NO3)cc1` as the compound, how does the Potency read?
**A.** The Potency was inconclusive: 35.5 µM [inhibitor, partial curve, poor fit].

**Q.** Which Potency does the source give for `CCCCCCNC(=O)Cc1csc2nc(C)c(-c3cc(C)n(-c4cccc(C)c4)n3)c(=O)n12` here?
**A.** The Potency was inconclusive: 15.8 µM [inhibitor, partial curve, poor fit].

**Q.** Which “activity change, negative = inhibition” value does the source give for `O=C(c1nnc(CNCc2cccc(F)c2)n1-c1cccnc1)N1CCC[C@@H]1C(c1ccccc1)c1ccccc1` here?
**A.** Its value is inactive: -5.22%.

**Q.** Which Potency does the source give for `Cc1ccc(NC(=O)Nc2ccc(C)n(CC(=O)NCCN3CCCC3)c2=O)cc1` here?
**A.** The Potency was inconclusive: 22.4 µM [inhibitor, partial curve].

**Q.** With `O=C(CCc1nc2ccc(Cl)cc2[nH]1)N1CCc2c(nc3cc(-c4ccccc4)[nH]n3c2=O)C1` as the compound, how does the Potency read?
**A.** Its Potency is active: 31.6 µM.

**Q.** Which Potency does the source give for `COc1ccc(NC2CCCN(C(=O)c3cc(C(C)=O)n[nH]3)C2)cc1OC` (stereo not given) here?
**A.** The Potency was inconclusive: 15.8 µM [inhibitor, single point].

**Q.** For `CCOCCn1c(-c2ccccc2)nc2ccccc21`, which Potency is on record?
**A.** The Potency was inconclusive: 28.2 µM [inhibitor, single point].

**Q.** With `CCc1ccccc1NS(=O)(=O)c1ccc2c(c1)CC(=O)N2` as the compound, how does the Potency read?
**A.** The Potency was inconclusive: 3.98 µM [inhibitor, partial curve, poor fit].

**Q.** With `Cc1cc2c(-c3cccc(S(C)(=O)=O)c3)nc(-c3c(C)noc3C)cc2[nH]1` as the compound, how does the Potency read?
**A.** Its Potency is active: 35.5 µM.

**Q.** With `Cc1ccc(-c2cc3ccccn3c2C=O)cc1C` as the compound, how does the Potency read?
**A.** The Potency was inconclusive: 39.8 µM [inhibitor, single point].

**Q.** How did the Potency turn out when `CCOC(=O)N1CCc2c(sc3c2C(=O)NC(c2cc(OC)c(OC)c(OC)c2)N3)C1` (stereo not given) was run?
**A.** Its Potency is inconclusive: 28.2 µM [inhibitor, partial curve, poor fit].

**Q.** How did the Potency turn out when `COc1ccc(-c2cc(C(F)(F)F)n3nc(-c4ccccc4)cc3n2)cc1OC` was run?
**A.** The Potency was inconclusive: 1.26 µM [inhibitor, partial curve, poor fit].

**Q.** How did the “activity change, negative = inhibition” value turn out when `Cc1ccc([S+](=O)([O-])N2CCC3OCCN(C(C)C)C(=O)C3C2)cc1` (stereo not given) was run?
**A.** Its value is inactive: -1.07% [at 86.2 µM].

**Q.** `Cc1ccc2nc(C3CCN(Cc4ccc(C#N)cc4)CC3)[nH]c(=O)c2c1` was tested. Which Potency did it give?
**A.** The Potency was active: 79.4 µM and inconclusive: 31.6 µM [inhibitor, partial curve, poor fit].

**Q.** `O=C(NC(=S)NC(CO)c1ccccc1)c1ccc(F)cc1` (stereo not given) was tested. Which Potency did it give?
**A.** Its Potency is inconclusive: 25.1 µM [inhibitor, single point].

**Q.** How did the Potency turn out when `COc1ccc(-n2c(-c3ccco3)nc3c(cnn3-c3ccc(Cl)cc3)c2=O)cc1` was run?
**A.** Its Potency is inconclusive: 17.8 µM [inhibitor, partial curve, poor fit].

**Q.** For `COCCN1CC(CO)C2(CCN(Cc3cnn(C(C)C)c3)CC2)C1` (stereo not given), which Potency is on record?
**A.** The Potency was inconclusive: 15.8 µM [inhibitor, single point].

**Q.** For `CCOc1ccc(/C=C/c2nc(C#N)c(NCc3ccccc3)o2)cc1`, which Potency is on record?
**A.** Its Potency is inconclusive: 31.6 µM [inhibitor, partial curve, poor fit].

**Q.** With `O=C(NCc1ccc(C(F)(F)F)cc1)c1nc2sccn2c1Br` as the compound, how does the “activity change, negative = inhibition” value read?
**A.** The value was inactive: 9.44%.

**Q.** `S=C(NCc1ccc(Cl)cc1)Nc1ccc(Cl)c(Cl)c1` was tested. Which “activity change, negative = inhibition” value did it give?
**A.** Its value is inactive: -19.1%.

**Q.** For `Cc1cccc(-n2nc(-c3c(C)nc4scc(CC(=O)N5CCCC5)n4c3=O)cc2C)c1C`, which Potency is on record?
**A.** Its Potency is inconclusive: 28.2 µM [inhibitor, partial curve, poor fit].

**Q.** For `COc1ccc(-c2cnc(NCc3ccccc3)c3c2CCO3)cc1`, which Potency is on record?
**A.** Its Potency is inconclusive: 35.5 µM [inhibitor, partial curve, poor fit].

**Q.** For `Cc1oc(-c2cccc(Cl)c2)nc1CS(=O)(=O)CC(=O)NC(C)CCc1ccccc1` (stereo not given), which Potency is on record?
**A.** The Potency was inconclusive: 28.2 µM [inhibitor, single point].

**Q.** Which “activity change, negative = inhibition” value does the source give for `COCCNC(=O)C[C@@H]1C[C@@H](C(C)C)[C@H](CNS(=O)(=O)c2ccccc2)C=C1C` here?
**A.** The value was inactive: 7.34% [at 86.2 µM].

**Q.** Which Potency does the source give for `N#Cc1nc(-c2ccc(F)cc2)oc1NCc1ccccc1` here?
**A.** Its Potency is inconclusive: 22.4 µM [inhibitor, partial curve, poor fit].

**Q.** `COc1ccc(-c2cc(-c3c(C)noc3C)cc3c2C(=O)N(C)C3)cn1` was tested. Which Potency did it give?
**A.** The Potency was active: 31.6 µM.

**Q.** Which Potency does the source give for `CCOc1ccccc1CNC(=O)c1ccc2c(c1)N(Cc1ccc(C)cc1)CCS2` here?
**A.** Its Potency is inconclusive: 35.5 µM [inhibitor, partial curve, poor fit].

**Q.** For `COc1ccccc1CNC(=O)c1ccc2c(c1)N(C)C1CCCN1C2=O` (stereo not given), which Potency is on record?
**A.** The Potency was inconclusive: 20 µM [inhibitor, partial curve, poor fit].

**Q.** How did the Potency turn out when `N#Cc1nc(/C=C/c2cccs2)oc1N1CCCCCC1` was run?
**A.** The Potency was inconclusive: 22.4 µM [inhibitor, partial curve, poor fit].

**Q.** With `Cn1cc(-c2cc(=O)c3ccnc(NC4CCOCC4)c3o2)cn1` as the compound, how does the “activity change, negative = inhibition” value read?
**A.** The value was inactive: -7.33% [at 86.2 µM].

**Q.** With `COC(=O)c1c(NC(=O)Cc2coc3cc(C)ccc23)sc2c1CCC2` as the compound, how does the Potency read?
**A.** Its Potency is inconclusive: 1.41 µM [inhibitor, partial curve, poor fit].

**Q.** `O=C(CCc1ncc(-c2ccc(F)cc2F)o1)Nc1ccc(Cl)cc1` was tested. Which “activity change, negative = inhibition” value did it give?
**A.** The value was inactive: -10.3%.

**Q.** For `CN1CCC(NC(=O)Cc2c[nH]c3ncc(-c4ccccc4)cc23)CC1`, which Potency is on record?
**A.** The Potency was active: 35.5 µM.

**Q.** How did the Potency turn out when `Cc1cccc(COc2ccc(/C=C(\C#N)c3nc4ccccc4[nH]3)cc2)c1` was run?
**A.** Its Potency is inconclusive: 39.8 µM [inhibitor, single point].

**Q.** With `CC(C)c1cc(=O)oc2cc(OS(=O)(=O)c3ccc4c(c3)OCCO4)ccc12` as the compound, how does the Potency read?
**A.** The Potency was inconclusive: 39.8 µM [inhibitor, single point].

**Q.** For `Cc1cc(N2CCC(C)CC2)nc2ccc(NC(=O)Cc3c(F)cccc3Cl)cc12`, which Potency is on record?
**A.** The Potency was inconclusive: 3.16 µM [inhibitor, full curve, poor fit].

**Q.** For `Cc1ccc(-c2ocnc2C(=O)NCc2ccc(OC(C)C)cc2)s1`, which Potency is on record?
**A.** Its Potency is inconclusive: 10 µM [inhibitor, partial curve, poor fit].

**Q.** For `CCOc1ccc(NC(=O)c2c(NCc3cccc(OC)c3OC)sc3c2CCC3)cc1`, which Potency is on record?
**A.** The Potency was inconclusive: 31.6 µM [inhibitor, partial curve, poor fit].

**Q.** How did the “activity change, negative = inhibition” value turn out when `COc1cc(OC)c(OC)cc1/C=C/C(=O)c1ccc(OC(F)F)c(OC)c1` was run?
**A.** Its value is inactive: 3.91%.
